Test results taken from the supplement of paper PMC3334620.
The full ranking holds about 33,000 sequences; the median of “E-score (-0.5 to 0.5)” is about -0.04, and the highest 2% start at about 0.36. This is one part of the list.

Each sequence was assayed against T1, Hmlalpha2 (UniProt P0CY09) (assay: PBM E-score (8-mer binding enrichment) (E-score (-0.5 to 0.5)); higher = stronger / more preferred TF binding; most listed sequences are background and not binding sites). Conditions: protein concentration: 200 nM; construct: GST-full length.
T1 sequence: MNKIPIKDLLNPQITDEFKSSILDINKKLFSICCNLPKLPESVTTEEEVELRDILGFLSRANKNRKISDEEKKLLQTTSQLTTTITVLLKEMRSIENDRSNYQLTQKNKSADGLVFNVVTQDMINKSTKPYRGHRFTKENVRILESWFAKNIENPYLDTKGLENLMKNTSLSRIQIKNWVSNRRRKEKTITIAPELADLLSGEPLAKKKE
Procedure, shortened: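 E-scores (a modified Wilcoxon-Mann-Whitney statistic) were assigned by the Universal PBM Analysis Suite to every ungapped eight-base word pooled with its reverse complement. The input came from universal all-10-mer Agilent arrays made double-stranded by primer extension and probed with GST-tagged yeast transcription factors at about 100-200 nM. Fluorescent anti-GST detected bound protein, and masliner normalised the scans.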

Point of comparison: AACGCCAA, “PBM E-score” value 0.068. Against it:
- AAACATGA — higher, 0.388
- ACCGGTAG — lower, -0.287
- GGCCTGGA — lower, -0.281
- CACAAGTC — lower, -0.141
- CCGTCCCA — lower, -0.196
- ATGATAAT — higher, 0.185
- ATGCTCGA — lower, -0.059
- AGTGTGGC — lower, -0.157
- ATGTGGCC — lower, -0.173
- CATTCCAG — lower, -0.107
- GGAACCCA — lower, -0.0867
- CCTTCGCG — lower, -0.175
- CATTATGG — lower, -0.2
- CGCATGGA — lower, -0.0665
- ATCTTGTC — higher, 0.133
- CATTGTTA — higher, 0.241
- CTAACCGA — lower, -0.0476
- CTCTCTGA — lower, -0.261
- AGGATTGA — lower, 0.0479
- CTGGGCGC — lower, -0.268
- ACCCAATC — lower, -0.25
- AGAACCAA — lower, -0.0821
- GACTGGCA — lower, -0.238
- AGCAATCG — higher, 0.108
- CAATTGGG — lower, -0.286
- GAGTGATA — lower, -0.0114
- CCCGCTCA — lower, -0.322
- ATGGCCGG — lower, -0.236
- AGAAGGAG — lower, -0.23
- CGCTATGC — lower, -0.00943
- GATATATA — higher, 0.172
- TGCTCTAA — lower, -0.134
- AGGCGCAG — lower, -0.306
- AGGGAAAT — lower, -0.162
- CGGCAACC — lower, -0.299
- ACTACTTC — lower, -0.121
- CAGTCTAC — lower, -0.0874
- GACCGCTA — lower, -0.201
- TAACATAA — higher, 0.422
- GGTATAAA — lower, -0.0572
- CCTTCATC — lower, -0.227
- GAATGCTA — lower, -0.186
- GGCTTCTA — lower, -0.115
- ACACCACC — lower, -0.0537
- GCCATTCC — lower, -0.185
- ATTCTGTG — lower, 0.0603
- GGACTCGA — lower, -0.17
- CGAAGCTC — lower, -0.151
- TACCACGA — higher, 0.0931
- ATACGGTC — lower, -0.0524
- ATTGGTTC — higher, 0.1
- ATTGCGCA — lower, -0.118
- CGGAATGA — lower, -0.0672
- ATGCAGCC — lower, 0.0506
- AGACAGAG — lower, 0.0357
- AAGCGAGG — lower, -0.289
- CGACACAC — higher, 0.231
- GATCGAGA — higher, 0.0694
- CAAAACCG — lower, -0.0442
- ATGAGCTG — lower, -0.164
- AGCACTAC — lower, 0.0103
- ATGTGTAC — higher, 0.372
- AAGTGCCT — lower, -0.223
- ACCCTGCG — lower, -0.126
- ATTCGCCC — lower, -0.105
- ATTAGCTA — lower, 0.011
- CAACCGGC — lower, -0.126
- CAAGCAGA — lower, 0.0238
- ATAGCGCC — higher, 0.156
- AAGGTGGG — lower, -0.222
- AACCTAAC — higher, 0.0796
- TGCCCAAA — lower, -0.202
- CCAGATAA — higher, 0.0707
- GGCATTTA — lower, -0.0439
- CCTGGTGC — lower, -0.119
- GCGGAGGA — lower, -0.138
- AAACGGAA — lower, 0.00601
- CAACTAAC — higher, 0.201
- CCAGACGC — lower, -0.259
- ACGCGTGG — higher, 0.121
- CCTATGGA — lower, -0.138
- AGTTGGAC — lower, 0.0173
- CTCCTTGA — lower, -0.202
- CACCAGGG — lower, -0.258
- GGCAATCA — lower, -0.207
- CATGTTGG — higher, 0.358
- ACCAAGCT — lower, 0.0398
- ACGAGTAT — lower, 0.0171
- AGTCCCAG — lower, -0.0667
- AAAAAATT — higher, 0.142
- CCGTTAAC — higher, 0.0773
- GGGCCGCA — lower, -0.242
- ATACCCTG — lower, -0.0779
- AGATCAAA — lower, -0.112
- GCCATCTA — lower, -0.19
- CCTGTAGA — higher, 0.0876
- AGAATAAG — lower, 0.0592
- CTAAGCCA — lower, -0.199
- ACTCCACG — lower, -0.226
- ATAATAAC — higher, 0.187
- CTGAGTAA — higher, 0.115
- AAATGAAG — lower, -0.134
- ACTGCTGA — lower, -0.119
- AACGCGCA — higher, 0.317
- ACAAACCA — higher, 0.109
- CCTCTAGA — lower, -0.131
- GCGAGTAC — higher, 0.159
- ATACTTGC — higher, 0.164
- TACGTGGA — higher, 0.0888
- CCTTGTCC — lower, -0.183
- ACAGGGGA — lower, -0.0297
- AGTCAGCA — higher, 0.103
- CGTTGAAG — higher, 0.116
- AGCTTAAT — lower, 0.0138
- CTCTGCTC — lower, -0.202
- GACTGGGC — lower, -0.102
- ACGTGGGG — lower, -0.14
- ATACGAGA — higher, 0.128
- GAATACTC — higher, 0.115
- GCGAGGTA — lower, -0.00122
- CGATCTGC — lower, -0.098
- GTCGATGA — lower, -0.179
- CCGAGGCC — lower, -0.192
- CAACTGTC — lower, -0.068
- ATACTTCC — lower, -0.104
- CTCCCGGC — lower, -0.189
- CGTTGTCA — higher, 0.122
- AAACGTCT — higher, 0.0962
- AAGTGGAT — lower, -0.22
- AGGTCAGA — lower, -0.26
- ATGCTCGG — lower, -0.255
- TTAGTCAA — lower, 0.0139
- GATCTGTA — lower, 0.0253
- GTATCTGA — lower, 0.0164
- AGGTCATG — lower, 0.0302
- CCGTGACA — lower, -0.09
- AGGCTTTG — lower, -0.236
- CGGGTGGC — lower, -0.306
- AACCCGAA — lower, -0.195
- CTACACTC — higher, 0.145
- TGCTACCA — lower, -0.00589
- ACCTCTTG — lower, -0.105
- TAGCACGA — higher, 0.162
- AGCCTAGC — lower, -0.199
- AACCCTCT — lower, -0.115
- CCGCGTCA — higher, 0.107
- AGACCCGA — lower, -0.0455
- AATCGAAG — higher, 0.168
- CGCCGGAC — lower, -0.196
- ATGGCTGA — lower, -0.151
- CAATCCTG — lower, 0.0153
- CACTCCGG — lower, -0.0549
- TAGCGAGA — lower, -0.197
- CCGATGCC — lower, -0.326
- ATTTGCGG — lower, -0.123
- CGGCCTCA — lower, -0.0725
- ACAACTTC — higher, 0.128
- ACACTTTG — higher, 0.213
- GAATTAGA — lower, -0.0752
- GCTGCAAA — higher, 0.131
- AGCTCGTC — lower, -0.133
- TTATGAAA — higher, 0.112
- GACTATCC — lower, -0.282
- ATTAGTAG — higher, 0.115
- ACACCTCT — lower, 0.0306
- CAGAGACA — lower, -0.0824
- GCCACGGA — lower, -0.188
- AACAACTT — higher, 0.143
- CTCCCATC — lower, -0.242
- CCGGGTAC — lower, -0.116
- CTCACCCA — lower, -0.288
